Out of some 310,000 compounds screened, about 2,200 (0.71%) showed an effect of 50% or more. Effects have a minus sign here. The list shows a part of the results.

The text below walks through data of PMC4336329 (PLoS ONE, 2015).

Chain of human ether-à-go-go-related gene (hERG) potassium channel (Q12809 whole entry, looked up): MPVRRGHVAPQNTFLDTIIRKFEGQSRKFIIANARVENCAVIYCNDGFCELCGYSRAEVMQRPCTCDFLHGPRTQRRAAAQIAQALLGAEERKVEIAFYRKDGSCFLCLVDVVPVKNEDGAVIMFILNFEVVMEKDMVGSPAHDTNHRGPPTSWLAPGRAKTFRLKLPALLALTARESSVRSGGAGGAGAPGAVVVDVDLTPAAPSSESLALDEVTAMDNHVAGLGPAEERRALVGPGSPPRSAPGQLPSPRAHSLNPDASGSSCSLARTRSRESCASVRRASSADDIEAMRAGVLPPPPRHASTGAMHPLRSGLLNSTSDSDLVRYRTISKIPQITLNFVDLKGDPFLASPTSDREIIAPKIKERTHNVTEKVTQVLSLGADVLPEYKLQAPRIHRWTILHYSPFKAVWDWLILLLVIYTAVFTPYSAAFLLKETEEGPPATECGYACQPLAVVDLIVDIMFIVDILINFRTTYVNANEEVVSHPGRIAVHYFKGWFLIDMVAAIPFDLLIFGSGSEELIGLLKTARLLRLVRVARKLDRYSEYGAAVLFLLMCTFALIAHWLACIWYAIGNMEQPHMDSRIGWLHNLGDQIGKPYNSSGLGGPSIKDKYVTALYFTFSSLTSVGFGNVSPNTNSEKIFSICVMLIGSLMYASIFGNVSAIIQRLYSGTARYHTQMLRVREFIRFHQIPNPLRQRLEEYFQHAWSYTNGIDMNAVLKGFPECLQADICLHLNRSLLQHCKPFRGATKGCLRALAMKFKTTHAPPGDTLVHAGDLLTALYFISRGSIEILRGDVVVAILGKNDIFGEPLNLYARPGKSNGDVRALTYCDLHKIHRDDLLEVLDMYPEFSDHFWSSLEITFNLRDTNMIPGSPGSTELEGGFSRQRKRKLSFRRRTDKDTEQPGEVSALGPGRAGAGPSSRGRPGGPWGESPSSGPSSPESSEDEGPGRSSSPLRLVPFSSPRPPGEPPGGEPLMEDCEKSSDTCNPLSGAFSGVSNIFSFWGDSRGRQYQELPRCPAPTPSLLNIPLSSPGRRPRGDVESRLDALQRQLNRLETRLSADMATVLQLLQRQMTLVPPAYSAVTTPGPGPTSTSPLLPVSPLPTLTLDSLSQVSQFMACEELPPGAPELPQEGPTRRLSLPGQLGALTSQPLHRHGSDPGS

The experiment concerns the target human ether-à-go-go-related gene (hERG) potassium channel (human, UniProt Q12809). The experiment is described as follows: primary screen, population patch clamp on CHO cells stably expressing hERG.
Take `Nn1c(SCC(=O)NCCN2C(=O)CSC2=O)nnc1-c1ccc(OC(F)F)cc1`: the “hERG current change (%, negative = inhibition) at 1uM” value is reported as 20.3%.
To `CCOC(=O)CN1N=C(c2ccc(C)cc2)CCC1=O` belongs -9.75%; to `CC(C)N1C(=O)c2ccc(C(=O)O)cc2C1=O`, 3.86%; to `CC(O)CNc1nc2c(c(=O)n(C)c(=O)n2C)n1Cc1cccc(Br)c1` (stereo not drawn), 2.69%.
For `Cc1cc(NC(=O)NC(=O)c2ccccc2F)no1`, the “hERG current change (%, negative = inhibition) at 1uM” value is on record as 18.2%.
As for `COC(=O)c1cc(S(=O)(=O)NCC2CCN(Cc3ccc(Cl)cc3)CC2)cn1C`, the “hERG current change (%, negative = inhibition) at 1uM” value was 0.856%.
As to `C/C(=N\NC(=O)Cc1csc(N2CCOCC2)n1)c1ccccc1`, the “hERG current change (%, negative = inhibition) at 1uM” value is reported as -13.8%.
To `CC(=O)NC(CCS(C)(=O)=O)C(=O)Nc1cc(C)on1` (stereo not drawn) belongs 7.45%; to `CCOC(=O)c1sc(=S)n(-c2ccc(OC)cc2)c1C`, 8%.
Turning to `CC(=O)Nc1ccc(NC(=O)CSc2nnc(NC(=O)C3CC(=O)N(c4ccc(F)cc4)C3)s2)cc1` (stereo not drawn), the “hERG current change (%, negative = inhibition) at 1uM” value worked out at 7.39%.
Regarding `Cc1ccc(/C=N/NC(=O)C2=NNC(c3ccccc3)(c3ccccc3)C2)c(O)c1`, the “hERG current change (%, negative = inhibition) at 1uM” value is -9.69%.
In the case of `CCc1ccc(CNCc2cccnc2)cc1`, the “hERG current change (%, negative = inhibition) at 1uM” value is 9.07%.
With `CC(CCc1ccccc1)NCC(O)COc1ccccc1` (stereo not drawn), the “hERG current change (%, negative = inhibition) at 1uM” value is recorded as -6.95%.
Take `CC1(C)NC(=O)N(CC(O)CN(c2ccccc2)S(=O)(=O)c2ccc([N+](=O)[O-])cc2)C1=O` (stereo not drawn): the “hERG current change (%, negative = inhibition) at 1uM” value is on record as 5.59%.
With `O=C(CSc1nc2ccccc2o1)NCc1n[nH]c(=O)c2ccccc12` the figure was 2.21%.
To `CCOC(=O)c1cc2n(c1C)-c1ccccc1C2=O` belongs 8.74%; to `COC(=O)c1ccc(OC(=O)C2CSC3(C)CCC(=O)N23)cc1` (stereo not drawn), 4.79%; to `CN(C(=O)CS(=O)(=O)c1cn(CC(=O)N2CCOCC2)c2ccccc12)c1ccccc1`, 11.6%.
As to `Cn1ccnc1C(O)(c1nnc(-c2ccccc2)o1)C(F)(F)F` (stereo not drawn), the “hERG current change (%, negative = inhibition) at 1uM” value is given as 17.8%.
To `CC1(C)Cc2c(sc3c2C2=NCCN2C=N3)CO1.Cl` belongs 11.2%; to `Cc1ccc(C(C(=O)NC(C)(C)C)N(CCCN2CCOCC2)C(=O)c2ccc(-c3ccccc3)[nH]2)o1` (stereo not drawn), -0.731%.
To `Cc1cc(C)c2c3c(sc2n1)C(=O)N(c1ccccc1)CC(=O)N3` belongs 14.4%; to `COc1cccc(CC(=O)NCC2COc3ccccc3O2)c1OC` (stereo not drawn), 1.42%.
Consider `CCOc1cc(C2NCc3ccccc3-n3cccc32)ccc1O.Cl` (stereo not drawn), for which the “hERG current change (%, negative = inhibition) at 1uM” value is listed as -5.6%.
With `O=C(CSc1nnc(NC(=O)c2c(F)cccc2F)s1)Nc1ccccc1F` the figure was 9.35%; with `C=CCn1cc(/C=N/Nc2nc3ccccc3[nH]2)c2ccccc21`, 10.9%; with `CCCCc1ccc(NC=C2C(=O)OC3(CCCCC3)OC2=O)cc1`, 9.43%.
To `Nc1c(C(=O)NCc2ccco2)c2nc3ccccc3nc2n1Cc1ccc(F)cc1` belongs 14.1%; to `Cc1ccc(C(c2nnnn2CC2CCCO2)N2CCN(C)CC2)cc1.Cl` (stereo not drawn), 2.52%; to `O=C(OCc1nnc(-c2ccc(Br)cc2)o1)c1cncc(Br)c1`, 2.67%.
As to `Cc1ccc(C#N)c(SCc2cccc(Br)c2)n1`, the “hERG current change (%, negative = inhibition) at 1uM” value amounted to 17.2%.
With `CN1CCCN(C(=O)CC2(CC(=O)O)CCCCC2)CC1.Cl` the figure was 15.6%; with `O=C(CSc1nccc(=O)[nH]1)N1CCOCC1`, -1.47%; with `C=CCNC(=O)CCCOc1cc(C)ccc1C`, -0.933%.
To `Cn1c(CNC(=O)c2ccccc2F)cc2ccccc21` belongs 13.7%; to `CCOC(=O)c1cc2c(s1)-c1c(C)cccc1OC2`, 15.6%.
To `CCc1cc(C(=O)c2ccc(OC)cc2)c(NC(=O)CC(C)(C)CC(=O)O)s1` belongs 11.1%.
On to `c1nc(N2CCOCC2)c2[nH]cnc2n1`, for which the “hERG current change (%, negative = inhibition) at 1uM” value is 9.82%.
For the compound `CC1CCN(CCCNS(=O)(=O)c2ccc3c(c2)CCN3C(=O)C2CC2)CC1`, the “hERG current change (%, negative = inhibition) at 1uM” value amounted to 15.2%.
To `CCn1ncc2c1C(=O)NC1c3ccccc3C(=O)N21` (stereo not drawn) belongs 4.67%; to `O=C(NCC1CCCO1)c1cccc(NC(=O)c2ccccc2)c1` (stereo not drawn), 12.8%; to `CCOC(=O)CCCCC(=O)c1[nH]c(=O)[nH]c1CSCCO`, 8.47%.
As for `O=C(NCCCn1ccnc1)/C(=C\c1cccnc1)NC(=O)c1cccc(Br)c1`, the “hERG current change (%, negative = inhibition) at 1uM” value came to 3.81%.
For the compound `COc1ccccc1C(=O)NCC(=O)NNC(=O)C1COc2ccccc2O1` (stereo not drawn), the “hERG current change (%, negative = inhibition) at 1uM” value came out at 9.8%.
With `Cc1cc(C)c(C(=O)NCCCN2CCOCC2)c(C)c1` the figure was 11.1%; with `Cc1cc(N2CCCC2)nc(-c2ccccc2O)n1`, 1.62%; with `CCOc1ccc(-n2c(SCC(=O)Nc3ccc4c(c3)OCO4)nc3ccccc3c2=O)cc1`, 12.6%.
With `CC(C)CCn1nnnc1CN1CCN(c2ccc(F)cc2)CC1` the figure was 0.776%; with `COc1ccc(-c2nnc(NC(=O)c3ccc(F)cc3)o2)cc1`, 11.5%.
With `CC(C)(C)OC(=O)N1CCC(C(=O)N2CCCCCC2)CC1` the figure was 12.6%.
Consider `[Cl-].c1ccc(-[n+]2nc(Nc3cccc4ccccc34)sc2-c2c3ccccc3cc3ccccc23)cc1`, for which the “hERG current change (%, negative = inhibition) at 1uM” value was 17.6%.
`COc1cccc(/C=C/c2onc(C)c2S(=O)(=O)N2CCC(C(=O)NC3CCCCCC3)CC2)c1`: the “hERG current change (%, negative = inhibition) at 1uM” value amounted to 2.31%.
With `Cc1ccc2c(c1)N(C(=O)CCC(=O)NCCN1CCOCC1)CCO2`, the “hERG current change (%, negative = inhibition) at 1uM” value stood at 6.54%.
Turning to `O=C1CCN(c2ccc([N+](=O)[O-])cc2F)CC1`, the “hERG current change (%, negative = inhibition) at 1uM” value came out at 13.2%.
Consider `Cc1ccc(NC(=O)CCN2C(=O)c3ccccc3S2(=O)=O)cc1F`, for which the “hERG current change (%, negative = inhibition) at 1uM” value came to 4.54%.
To `O=C(Nc1ccc(Cl)cc1)c1csc(Cc2ccccc2)n1` belongs 12.4%; to `C/C(Cn1nc([N+](=O)[O-])cc1C)=N\NC(=O)c1ccc(C(C)(C)C)cc1`, -0.797%; to `CC(=O)Nc1nc2ccc(-c3nc4ccccc4o3)cc2s1`, 9.18%.
Regarding `CC(Cc1cccs1)NC(=O)NC1CCCCC1` (stereo not drawn), the “hERG current change (%, negative = inhibition) at 1uM” value is 9.41%.
To `O=[N+]([O-])c1cc(C(F)(F)F)cc([N+](=O)[O-])c1NCCCN1CCOCC1` belongs 1.8%; to `Nc1cccc2c1C(=O)N(C(=O)c1ccc(S(=O)(=O)N3CCCCCC3)cc1)C2=O`, 7.91%; to `O=P(c1ccccc1)(c1ccccc1)C(O)c1ccc(Br)cc1` (stereo not drawn), 19.2%.
Regarding `CCCCn1c(-c2cccc3ccccc23)nc2cc3[nH]c(=O)c(C(C)C)nc3cc21`, the “hERG current change (%, negative = inhibition) at 1uM” value is reported as 3.21%.
With `CC(=O)N1CN2CN(C1)CN(C(C)=O)C2` the figure was 7.53%; with `CCC(=NCCCN(CC)CC)c1c(O)n(-c2ccccc2)c(=O)[nH]c1=O`, 3.7%.
With `COc1ccc(N2C(=O)NC(=O)/C(=C/c3ccc4c(c3)Cc3ccccc3-4)C2=O)cc1`, the “hERG current change (%, negative = inhibition) at 1uM” value turned out to be 7.65%.
Take `CC(C)CN1CCC(=O)N(CCOc2ccccc2)CC1`: the “hERG current change (%, negative = inhibition) at 1uM” value was 15.5%.
Take `COc1ccc(C(=O)NCc2nnc(SCC(=O)N3CCC(C)CC3)o2)cc1OC`: the “hERG current change (%, negative = inhibition) at 1uM” value was 10.9%.
With `COC(=O)c1nc2ccccc2s1` the figure was 11.7%; with `Cc1onc(-c2ccccc2)c1C(=O)Nc1ccncc1`, 15.3%.
As to `Cc1ccc(NS(=O)(=O)c2cc(C(=O)NCc3ccccn3)ccc2Cl)cc1`, the “hERG current change (%, negative = inhibition) at 1uM” value was 13.6%.
For the compound `COc1ccc(N2CCN(C(CNC(=O)C(C)(C)C)c3ccco3)CC2)cc1` (stereo not drawn), the “hERG current change (%, negative = inhibition) at 1uM” value was found to be 2.34%.
Take `CCc1ccc(CN(C)CC(=O)Nc2ccccc2[N+](=O)[O-])cc1`: the “hERG current change (%, negative = inhibition) at 1uM” value amounted to 6.79%.
Take `CP(=O)(COC(=O)c1ccccc1)COC(=O)c1ccccc1`: the “hERG current change (%, negative = inhibition) at 1uM” value worked out at 1.81%.
To `O=C(NCCN1CCCc2ccccc21)C1CCC(=O)N(CCc2ccccc2)C1` (stereo not drawn) belongs 10.6%; to `O=C(CSc1nc2ccccc2c(=O)n1-c1ccccc1)N1CCC1`, 18.3%.
To `CC1=C(C(=O)OCc2ccccc2)C(c2ccoc2)C(C#N)=C(N)O1` (stereo not drawn) belongs 7.02%.
With `CCc1c(C(=O)NNC(=S)NCc2ccccc2)csc1C` the figure was -1.77%.
As for `CCN(C(=O)CSC1=Nc2ccccc2C2CC=NN12)C1CCS(=O)(=O)C1` (stereo not drawn), the “hERG current change (%, negative = inhibition) at 1uM” value came to 16.7%.
Take `CCN(CC)CCN(C(=O)/C=C/c1cccs1)c1nc2ccc(F)cc2s1.Cl`: the “hERG current change (%, negative = inhibition) at 1uM” value stood at 4.44%.
With `Nc1ccc(-c2nc(-c3ccccc3)nc3ccccc23)cc1` the figure was 5.79%; with `COCCn1c(SCC(=O)Nc2cc(C(C)(C)C)nn2-c2ccccc2)nc2ccccc2c1=O`, 5.83%; with `Cc1ccc2nc(SCc3ccc([N+](=O)[O-])cc3)nc(C)c2c1`, 4.51%.
With `Cc1nc2ccccc2c(=O)n1/N=C/c1c(O)ccc2ccccc12` the figure was 7.32%; with `Cc1ccc(Nc2nc(N)c([N+](=O)[O-])c(NCc3ccco3)n2)cc1C`, 10.1%; with `Nc1ccc(N2CCCCC2)c(Cl)c1`, 15.1%.
With `Fc1ccc(-n2cc(-c3ccccc3)c3c(NN4CCOCC4)ncnc32)cc1` the figure was -0.354%; with `COc1ccc(CN2CCN(C(=O)c3c(-c4ccccc4)noc3C)CC2)cc1F`, -1.74%; with `CN(C)CCN=Cc1c(O)n(Cc2ccc3c(c2)OCO3)c(=S)[nH]c1=O`, 10.7%.
Regarding `Cc1cc(OC(=O)c2ccco2)c2c3c(c(=O)oc2c1)CCC3`, the “hERG current change (%, negative = inhibition) at 1uM” value is reported as 10.4%.
